Data taken from article PMC4336329 (PLoS ONE, 2015).
Among all 310,000 compounds or so, about 14,000 (4.5%) showed an effect of 50% or more. Effects have a minus sign here. This is one part of the list.

These compounds were tested against human ether-à-go-go-related gene (hERG) potassium channel (human, UniProt Q12809) (assay: primary screen, population patch clamp on CHO cells stably expressing hERG).
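Further: peak tail current of the secondary pulse compared with the same well before compound.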

Chain of human ether-à-go-go-related gene (hERG) potassium channel (Q12809 whole entry, looked up): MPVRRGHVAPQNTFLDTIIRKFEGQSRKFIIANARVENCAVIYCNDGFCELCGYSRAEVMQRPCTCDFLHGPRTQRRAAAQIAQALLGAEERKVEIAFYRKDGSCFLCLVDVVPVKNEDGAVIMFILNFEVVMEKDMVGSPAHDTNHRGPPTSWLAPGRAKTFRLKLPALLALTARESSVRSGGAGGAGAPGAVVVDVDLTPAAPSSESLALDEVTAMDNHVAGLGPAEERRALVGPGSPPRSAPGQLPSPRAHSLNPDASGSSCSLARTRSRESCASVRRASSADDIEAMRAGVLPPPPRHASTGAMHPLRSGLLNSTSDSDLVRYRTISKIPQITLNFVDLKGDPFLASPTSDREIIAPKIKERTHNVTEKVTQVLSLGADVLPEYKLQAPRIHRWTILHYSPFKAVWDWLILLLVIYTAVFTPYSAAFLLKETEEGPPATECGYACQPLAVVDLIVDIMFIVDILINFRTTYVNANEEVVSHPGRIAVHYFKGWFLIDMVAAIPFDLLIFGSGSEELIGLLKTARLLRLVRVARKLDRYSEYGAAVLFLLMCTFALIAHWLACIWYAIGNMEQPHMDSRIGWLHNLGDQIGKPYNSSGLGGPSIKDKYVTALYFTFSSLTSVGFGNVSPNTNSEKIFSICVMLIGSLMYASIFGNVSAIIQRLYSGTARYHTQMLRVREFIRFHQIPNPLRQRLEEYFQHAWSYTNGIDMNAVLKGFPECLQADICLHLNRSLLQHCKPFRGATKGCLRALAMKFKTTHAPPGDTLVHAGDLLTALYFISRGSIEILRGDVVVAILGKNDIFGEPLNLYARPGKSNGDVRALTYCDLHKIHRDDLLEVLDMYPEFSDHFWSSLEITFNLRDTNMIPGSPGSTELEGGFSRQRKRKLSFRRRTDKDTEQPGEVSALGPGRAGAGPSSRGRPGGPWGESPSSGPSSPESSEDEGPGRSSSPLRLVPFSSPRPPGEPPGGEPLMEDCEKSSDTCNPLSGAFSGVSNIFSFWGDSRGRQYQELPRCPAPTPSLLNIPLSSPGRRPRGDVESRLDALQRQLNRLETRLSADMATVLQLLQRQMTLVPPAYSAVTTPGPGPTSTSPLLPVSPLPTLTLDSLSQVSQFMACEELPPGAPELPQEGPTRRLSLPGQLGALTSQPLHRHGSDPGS

Row | SMILES | hERG current change (%, negative = inhibition) at 10uM [%]
1 | CC(NC(=O)CCC(=O)Nc1ccccc1O)c1ccccc1 (centres unmarked) | 6.4
2 | Cc1ccc(S(=O)(=O)NCC(c2cccnc2)N2CCN(Cc3ccccc3)CC2)cc1 (centres unmarked) | -73.1
3 | CS(=O)(=O)N(CC(=O)NCCSCc1ccco1)c1ccc(Cl)cc1 | 21.3
4 | CN(C)C(CNC(=O)c1oc2ccccc2c1CSc1ncn[nH]1)c1ccco1 (centres unmarked) | -8.03
5 | CN1C2c3ccccc3C3C4c5ccccc5C(C31)C(C2[N+](=O)[O-])N4C (centres unmarked) | 8.45
6 | COC(=O)c1cccc(NC(=O)c2onc3c2CCCC3)c1 | -5.47
7 | N#CC1=C2Nc3ccccc3N2C(=O)NC1(c1ccccc1)C(F)(F)F (centres unmarked) | 13.9
8 | CC(C)n1c(CN2CCN(Cc3ccccc3)CC2)nc2ccccc21 | -14.4
9 | CCCC(=O)NC(Nc1cc(C(F)(F)F)ccc1Cl)C(Cl)(Cl)Cl (centres unmarked) | -5.74
10 | Cc1cccc2c1-c1sc(C(=O)N3CCCCC3)cc1CO2 | -18.6
11 | CC1CCCCC12NC(=O)N(CC(=O)Nc1cccc(S(=O)(=O)N3CCCCC3)c1)C2=O (centres unmarked) | 2.19
12 | COCCOC(=O)C1=C(C)NC(=O)NC1c1cccc2ccccc12 (centres unmarked) | 10.2
13 | COc1ccc(-c2n[nH]c(=S)n2-c2ccccc2C)cc1 | 23.1
14 | CCCn1c(SCC(=O)NCCc2ccc(OC)c(OC)c2)nc2c1c(=O)n(C)c(=O)n2C | 1.31
15 | CCSc1nnc(NC(=O)C2CCCCC2C(=O)OCC(F)(F)C(F)F)s1 (centres unmarked) | 17.9
16 | Cc1ccc(NC(=O)C2(c3ccc([N+](=O)[O-])cc3)CCCC2)cc1 | -19.3
17 | Cc1ccccc1N1CCN(C(=O)C2CCC(=O)N(C3CCCC3)C2)CC1 (centres unmarked) | -22.5
18 | CN(CC(=O)Nc1ccccc1Cl)C(=O)COC(=O)/C=C/c1ccc(C(F)(F)F)cc1 | 16.1
19 | CC(/C=C/c1ccc2c(c1)OCO2)=N\NC(=O)COc1ccccc1C | -9.8

Row | SMILES | hERG current change (%, negative = inhibition) at 10uM [%]
20 | COc1ccc(OC)c(NC(=O)CSc2nnc(CNc3ccc(C)cc3C)o2)c1 | 11.2
21 | Cc1cc(C)nc(SCC(=O)Nc2ncc(Cc3cccc(Cl)c3Cl)s2)n1 | 6.66
22 | COc1ccc(OC)c(CCNC(=O)CCC(=O)N2CCOc3ccc(C)cc32)c1 | -28.3
23 | COC(=O)NNC(=O)COc1ccc2ccccc2c1Br | 4.56
24 | COc1ccc(C(=O)OCc2c(F)cccc2Cl)cc1S(=O)(=O)N1CCOCC1 | -21.8
25 | O=S(=O)(/N=C(/c1ccccc1)N1CCOCC1)c1ccc(Br)cc1 | -8.56
26 | CCC(=O)N1CCc2cc(S(=O)(=O)NCCC(=O)NC3CCCc4ccccc43)ccc21 (centres unmarked) | 2.47
27 | C#CCSc1nc2sc3c(c2c(=O)n1C)CCC3 | 13.6
28 | CCSc1nnc(NC(NC(C)=O)(C(F)(F)F)C(F)(F)F)s1 | 28.1
29 | O=c1[nH]c(=O)n(-c2cccc(Cl)c2)c(O)c1/C=N/c1ccccn1 | 14
30 | O=C(NCc1ccccn1)C1CCC(CNS(=O)(=O)c2cccc3nsnc23)CC1 (centres unmarked) | 2.45
31 | Cc1ccc2nc(-c3ccc(NC(=O)C4CCCO4)cc3)[nH]c2c1 (centres unmarked) | -3.48
32 | Cc1ccc(N2CCN(C3=NC(=O)C(Cc4ccccc4)S3)CC2)cc1 (centres unmarked) | -40.1
33 | CC1CCN(C(=O)c2[nH]cnc2C(=O)NCC(=O)OCc2ccccc2)CC1 | -1.6
34 | COc1cc(C2SCC(=O)N2c2c(C)n(C)n(-c3ccccc3)c2=O)ccc1O (centres unmarked) | -1.99
35 | CCC(=O)Nc1nnc(S(=O)(=O)N2c3ccccc3CC2C)s1 (centres unmarked) | 4.93
36 | Cc1ccc2cc(CCNS(=O)(=O)c3ccc(Cl)cc3)c(=O)[nH]c2c1C | 19.1
37 | C(=N\Nc1nc2ccccc2s1)/c1ccccn1 | -0.214
38 | Cc1ccc(CNC(=O)C2CCCN(c3nc(C)cc(C)n3)C2)cc1 (centres unmarked) | 13.8

Row | SMILES | hERG current change (%, negative = inhibition) at 10uM [%]
39 | Cn1c(=O)[nH]c(=O)c2c1nc(Br)n2CC(O)COc1ccc(Cl)cc1 (centres unmarked) | -63.6
40 | COc1ccc(C)cc1NC(=O)NCCCCc1ccccc1 | -0.4
41 | Cc1cccc2c(=O)n3c(nc12)CCCCC3 | 2.19
42 | CC(C)CN(CCCNC(=O)CN1C(=O)COc2ccc(S(=O)(=O)N3CCCCCC3)cc21)CC(C)C | -52
43 | O=C(c1ccc(Cl)cc1)N1CCN(c2ccc(F)cc2)CC1 | -34
44 | O=C(c1cccc(S(=O)(=O)N2CCN(c3ccc(F)cc3)CC2)c1)N1CCCC(C(F)(F)F)C1 (centres unmarked) | -25.3
45 | COc1ccc(C(=O)NCCCCCC(=O)N/N=C/c2ccco2)cc1OC | 19.4
46 | CCn1c(=NC(=O)CSC(C)=O)sc2ccccc21 | -17.3
47 | CCOC(=O)C1C(c2cccs2)NC(=O)NC1(O)C(F)(F)F (centres unmarked) | -1.78
48 | O=C1C(Cl)=C(NC2CCCCC2)C(=O)N1Cc1ccccc1 | 0.0781
49 | CCCOCC1CC2(CC(C)(c3csc(N)n3)OC2=O)C(=O)O1 (centres unmarked) | -7.03
50 | COc1cccc(S(=O)(=O)NCc2ccc(C(=O)N3CCN(c4ccccc4OC)CC3)cc2)c1 | -10.1
51 | O=C(NCc1ccccc1)C1CCCN(c2nc3ccsc3c(=O)s2)C1 (centres unmarked) | -0.465
52 | C=C1CC(C(=O)N/N=C/c2ccc(O)cc2)C1 | -2.57
53 | O=C(C1CC(c2ccccc2O)=NO1)N1CCCC1 (centres unmarked) | -2.65
54 | Cc1ccc(-n2ncc3c(=O)n(-c4ccc(C)c(C)c4)c(C)nc32)cc1 | 6.76
55 | COc1cc(CN2CCCC(CO)(Cc3ccccc3F)C2)ccc1O (centres unmarked) | -22.5
56 | O=C(NC1CCCCC1)C(c1ccc(F)cc1)N(Cc1ccco1)C(=O)Cn1nnc2ccccc21 (centres unmarked) | 2.6
